# Assay results from paper PMC12040169 (PLOS Biology, 2025).
# This is one part of the list.
# System: T1, C. trachomatis L2/434/Bu expressing GFP (CTL2-GFP)
# T1 construct: L2/434/Bu GFP intracellular growth in HeLa cells
# Set-up: species or system HeLa; C. trachomatis total inclusion area by high-content imaging, normalised to DMSO
# Details: total inclusion area; 28.5 h, 10 µM; inhibitor
# Procedure, shortened: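 Imaging read-out: GFP inclusions and Hoechst nuclei captured by high-content imaging after fixation. Inclusion area/number = chlamydial growth; nuclei count = host cell viability. MIC calculated per earlier method.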
row,Structure (SMILES),% of control remaining
1,CC1(C)Cc2c(c(-c3ccco3)nc3[nH]nc(N)c23)CO1 [CBK009252],108.891
2,c1coc(CCC2NCCn3cccc32)c1 (centres unmarked) [CBK023964F],124.404
3,Cc1ccc(C(=O)C(OC(=O)c2ccc(-c3nnc(-c4ccccc4)o3)cc2)c2ccccc2)cc1 (centres unmarked) [CBK265177],93.0753
4,CCOC(=O)c1csc(C2CCCN2C(=O)c2cc(SC)ccc2Cl)n1 (centres unmarked) [CBK306491],104.391
5,CCS(=O)(=O)N1CC2CCCC(O)(c3cccc(F)c3)C2C1 (centres unmarked) [CBK283108],94.5872
6,CN(C)CCOc1ncccc1OCCO [CBK000655F],88.0654
7,O=C(NC(c1ccc(F)cc1)c1cccs1)c1ccccn1 (centres unmarked) [CBK295636],105.702
8,Cc1nnc(Sc2nc(CN3CCOCC3)nc3scc(-c4cccs4)c23)n1C [CBK297092],79.4451
9,Nc1c(Cl)cc(NC(=O)CCCC(=O)O)cc1Cl [CBK263957],122.544
10,O=C(CN1CCOCC1)Nc1ccc(NC(=O)CN2CCOCC2)cc1 [CBK265045],91.5146
11,NC1CCN(C(=O)c2cn(C3CC3)c3cc(Cl)c(F)cc3c2=O)CC1 [CBK168626],108.987
12,O=C(c1cc2c([nH]1)CCCC2)N1CCC(CCN2CCOCC2)CC1 [CBK281869],115.439
13,O=S1(=O)CCCN1c1ccc2[nH]ncc2c1 [CBK010263],112.389
14,CCOc1cccc(CNc2ccc(O)cc2)c1OCc1ccccc1Cl [CBK074473],88.0086
15,COc1cc(NC(=O)CS(=O)(=O)c2ccccc2)c(OC)cc1Cl [CBK269471],73.6939
16,O=C(Nc1ccc(Cl)cc1)NC1(C(=O)NCc2ccncc2)CCCCC1 [CBK174259],88.4974
17,Cc1cccc(OCC2CCCN(C(=O)C3(Cn4cccn4)CC3)C2)c1 (centres unmarked) [CBK306578],74.2062
18,Cc1cc(C(=O)CSc2nncs2)c(C)n1C(C)c1ccccc1 (centres unmarked) [CBK297934],79.7355
19,O=C(CCC(=O)N1CCC2(CC1)CC(=O)c1ccccc1O2)NCC1CCCO1 (centres unmarked) [CBK156525],94.2018
20,Cc1ccnc(SCc2c(Cl)cccc2[N+](=O)[O-])n1 [CBK269632],64.1712
21,Cc1oc(C(=O)O)cc1CSC(C)C(=O)O (centres unmarked) [CBK263556],104.786
22,O=C(CN1CCC(C(=O)c2ccc(F)cc2)CC1)c1ccsc1 [CBK149137],69.4921
23,O=CN1CCc2c([nH]c3ccccc23)C12CCCN(CCOc1ccccc1)C2 (centres unmarked) [CBK039412],83.2383
24,CC(C)(C)OC(=O)NCc1ccc(-c2cc(Nc3cccc(Cl)c3)ncn2)cc1 [CBK037842],74.328
25,CCCCC12CN3CC(C)(CN(C1)C31C(=O)N(C)c3ccc(C)cc31)C2=O (centres unmarked) [CBK267286],98.2429
26,O=C(O)Cn1nnc(-c2ccc(OCc3ccccc3)cc2)n1 [CBK269755],45.2549
27,COc1ccc(CC(=O)Nc2ccc(Nc3ccccc3)cc2)cc1 [CBK263884],74.1858

row,Structure (SMILES),% of control remaining
1,COc1cccc(C(=O)N2CCC(Cc3ccc(-c4cccc(C)c4)cc3)(C(N)=O)CC2)c1 [CBK285779],41.5663
2,CN(C(=O)N1CCC(C(=O)NC(c2ccccc2)c2ccco2)CC1)c1ccccc1 (centres unmarked) [CBK059877],109.415
3,CCOC(=O)CCNC(=O)C1(c2ccc(OC)cc2)CC1 [CBK161490],90.2531
4,Cn1c(=O)[nH]c(=O)c2c1nc(N1CCN(Cc3ccccc3)CC1)n2CCCc1ccccc1 [CBK269529],89.1942
5,Cc1noc(C2COCCN2C(=O)c2cc(Cl)cn2C)n1 (centres unmarked) [CBK305120],33.1382
6,O=C(Nc1ccc(S(=O)(=O)N2CCCCC2)cc1)c1nc(SCc2ccccc2)ncc1Cl [CBK268901],82.2266
7,O=C1CCCC[C@@H]2[C@@H](N1)[C@H](c1ccccc1)CN2Cc1ccc2ccccc2n1 [CBK286281],102.841
8,CC(=O)Nc1cccc(NC(=O)c2cnc3sc(C)cn3c2=O)c1 [CBK287715],84.0468
9,O=C(c1ccc2[nH]nnc2c1)N1CCc2ccccc2C1 [CBK200332],65.6866
10,O=S(=O)(NC1CCCCC1n1cc(-c2ccccc2)nn1)c1ccc(Cl)cc1 (centres unmarked) [CBK266391],145.076
11,CCc1nc(-c2ccc(N(C)C)nc2)n(C)n1 [CBK306897],73.2237
12,COc1cccc(C(=O)Nc2ccccc2C(=O)Nc2cccc(C(=O)O)c2C)c1 [CBK265768],73.5432
13,CCOc1ccc(-c2cc(C(=O)N3CCN(C)CC3)c3ccccc3n2)cc1 [CBK066900],76.9716
14,Cc1cc2nc(C(=O)NCCCn3ccnc3C(C)C)cc(C)n2n1 [CBK307022],75.383
15,C=CCn1c(S)nnc1COc1cccc2ccccc12 [CBK267292],121.14
16,O=C(CN1CCCCC1Cn1cccn1)NCc1ccccn1 (centres unmarked) [CBK306146],30.9423
17,Cc1cccc(N2CCN(CC(=O)Nc3ccc(S(N)(=O)=O)cc3)CC2)c1C [CBK269369],97.6334
18,COc1ccccc1-c1cnc2[nH]c(=O)n(C3CCCCC3)c2n1 [CBK064203],120.644
19,Cc1c(CN(C)C(=O)c2ccc(COc3ccc(Cl)cc3)cc2)cnn1C [CBK265756],51.9547
20,CCn1nc(C(=O)Nc2ccccc2-c2ccc(OC)cc2)c2ccccc2c1=O [CBK285864],113.196
21,CCC(C)(C)c1ccc(S(=O)(=O)NCc2ccc(C(F)(F)F)cc2)cc1 [CBK044820],69.2536
22,Cc1nn(C)c(C)c1C(C)NC(=O)C1CC2C=CC1C21CC1 (centres unmarked) [CBK283076],97.157
23,O=C(O)c1[nH]n(-c2ccc(Cl)cc2)c(=O)c1CCO [CBK287079],119.101
24,Cc1cc(COc2nccnc2N2CCN(CCCn3c(=O)[nH]c4ccccc43)CC2)no1 [CBK084199],93.6178
25,Cc1nc2cccnc2n1C1CCN(C(=O)NC2CCCCC2)CC1 [CBK283637],76.453
26,Cc1noc(C)c1S(=O)(=O)Nc1cccc(C(=O)O)c1 [CBK038902],120.234
27,CC(=O)c1c(C)nn(CCC(=O)Nc2ccc(Cl)c(Cl)c2)c1C [CBK269829],74.1927

row,Structure (SMILES),% of control remaining
1,NC12CC(=O)CC(CC(c3ccccc3)C1)C2 (centres unmarked) [CBK010323C],54.7934
2,CC(=O)OC(C(=O)O)C(OC(C)=O)C(=O)O (centres unmarked) [CBK261063],98.5728
3,Cc1c(-c2noc(-c3ccc4c(c3)OCO4)n2)nnn1Cc1ccccc1 [CBK288609],100.053
4,CC(Oc1ccc(/C=C/[N+](=O)[O-])cc1)C(=O)O (centres unmarked) [CBK264042],111.291
5,CC(C)N(CCOc1nccnc1-c1ccc(OC(F)(F)F)cc1)C(C)C [CBK106848],103.211
6,COC(=O)c1ccccc1NC(=O)CSc1nnc(-c2ccncc2)[nH]1 [CBK266324],92.6983
7,OCCN1CC2(CCN(CCN3CCOCC3)CC2)c2ccccc21 [CBK126766],57.3197
8,COc1ccc(C(=O)NC(=S)Nc2ccccc2N2CCN(C)CC2)cc1[N+](=O)[O-] [CBK268292C],83.9978
9,O=C(O)CCc1nc(-c2ccncc2)no1 [CBK288558],90.6398
10,c1nc(OCCN2CCOCC2)cc(N2CCCNCC2)n1 [CBK085466],119.356
11,O=[N+]([O-])c1ccc(N2CCN(S(=O)(=O)c3ccccc3)CC2)cc1Sc1cccc2cccnc12 [CBK263821],87.4176
12,Cc1cc(S(=O)(=O)Nc2n[nH]cc2C#N)c(C)cc1Cl [CBK044943],83.3532
13,OCCCNc1nccnc1-c1ccccc1Cl [CBK038092],121.097
14,CNc1ccc(C(O)(C(F)(F)F)C(F)(F)F)cc1C(O)(C(F)(F)F)C(F)(F)F [CBK268070],98.2967
15,COC(=O)C(CC(C)C)Nc1nc(OC)cc(OC)n1 (centres unmarked) [CBK058765],89.694
16,COc1ccc(C2=CC(c3ccc(Cl)cc3)N3N=CNC3=N2)cc1OC (centres unmarked) [CBK287966],99.3669
17,Cc1nn2cc(-c3n[nH]cc3[N+](=O)[O-])cnc2c1C(=O)O [CBK268883],67.7127
18,O=C1CCCN1CC(=O)N1CCCC1c1nc2ccccc2[nH]1 (centres unmarked) [CBK282315],95.9391
19,CC1CCN(Cc2ccc(-c3nnn(CC(=O)NCc4ccc(O)cc4)n3)cc2)CC1 [CBK144156C],95.794
20,CC1=NNC(=O)C1C(c1ccc(Cl)cc1Cl)C1C(=O)NN=C1C (centres unmarked) [CBK067756],93.3765
21,O=S(=O)(Nc1nc(-c2c(F)cccc2Cl)cs1)c1cc(Cl)c(Cl)s1 [CBK200025],105.646
22,O=C(CCNS(=O)(=O)c1ccccc1)N1CCC(Cc2ccccc2)CC1 [CBK270091],95.7369
23,COc1ccc(N2CCN(C(=O)c3ccc([N+](=O)[O-])o3)CC2)cc1 [CBK091410],35.1973
24,COc1ccc(C2c3cc(OC)c(OC)cc3CC(=O)N2c2cccc(C(=O)O)c2)cc1OC (centres unmarked) [CBK296118],109.672
25,Cc1cc(COc2cc(NC(C)C)ncn2)no1 [CBK115887],119.942
26,Cc1ccc(-n2c(SCC(=O)NCc3ccccc3)nnc2-c2ccccc2O)c(C)c1 [CBK268892],108.163
